Data on 88 compounds can be found in PubChem BioAssay (NCI).

Where “and” joins values, the source holds several entries; their conditions need not be identical. Identical values can stand only once.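 Five concentrations, 48 hours, 96-well plates. At the GI50, growth is halved. TGI: concentration producing complete growth inhibition.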 Calls of active or inactive are those of the source. No stated cut-off is given here; in the data, active means GI50 below about 0.43 µM; inactive means the rest.

This assay has as its system NCI-H322M lung. Nature of the assay: NCI anticancer screen, dose series, 48 h.
For `CN1CCN(c2ccc3nc(-c4[nH]ncc4Nc4ncnc5c4OCCCN5)[nH]c3c2)CC1`, the GI50 is 0.0149 µM and the TGI is 0.0857 µM.
For the compound `COc1ccccc1NC(=O)C1=C(C)NC(C)=C(C(=O)Nc2ccccc2OC)C1c1cccc2ccccc12`, the TGI was > 100 µM.
With `CC(=O)O[C@H]1C[C@](C)(O)[C@@]23CC([C@@H](OC(=O)C(C)(C)O)[C@@H](OC(C)=O)C2(COC(=O)c2ccccc2)[C@H]1OC(C)=O)C(C)(C)O3` (stereo partly drawn), the TGI was > 100 µM.
In turn, `C1=CN2C[n+]3ccc4ccccc4c3N=C2c2ccccc21` showed a TGI of 32.4 µM.
For `C[N+]1([O-])[C@H]2CC(OC(=O)[C@H](CO)c3ccccc3)C[C@H]1[C@H]1O[C@H]12` (stereo partly drawn), the TGI is > 100 µM.
Turning to `Cn1cnc(SC2=C3C(=O)C=C4S[C@H]5C[C@]42c2c(c(O)c4c6c2=[N+]3CCC=6C=N4)N5)c1CC(N)C(=O)O` (stereo partly drawn), the TGI worked out at 36.3 µM.
Still for that read-out and setting: to `C[N+](C)(C)CC(CC(=O)[O-])C1CC1` (stereo not drawn) belongs > 100 µM; to `OCC1OC(c2ccccc2)CC1O` (stereo not drawn), > 100 µM; to `C[C@]12CC[C@H](O)CC1=CC[C@@H]1[C@@H]2CC[C@]2(C)C(=O)/C(=C/c3ccc([N+](=O)[O-])cc3)C[C@@H]12`, 41.3 µM.
For the compound `COc1cc(-c2nc(-c3ccc(-c4nc5ccc(F)cc5[nH]4)cc3)no2)cc(OC)c1OC`, the GI50 is 13 µM and the TGI stood at 52.4 µM.
With `NC1=Nc2ccccc2Sc2nc3ccccc3n21`, the TGI is > 100 µM.
On to `Cc1ccc(C#CS(=O)(=O)C(F)(F)F)cc1`, for which the TGI is > 100 µM.
Still for that read-out and setting: then `COc1cc2cnc(-c3ccccc3)cc2cc1OC`, with 80.3 µM.
On to `C[C@@H](Oc1cc(-n2cnc3ccc(OCC4CCN(C)CC4)cc32)sc1C(N)=O)c1ccccc1Cl`, for which the GI50 was 0.175 µM and the TGI came out at 5.41 µM.
For the compound `COc1ccc(C2=N[C@@H](c3ccc(Cl)cc3)[C@@H](c3ccc(Cl)cc3)N2C(=O)N2CCNC(=O)C2)c(OC(C)C)c1`, the GI50 is 18.7 µM and 13 µM and 14.3 µM; the TGI is 36.5 µM and 26.8 µM and 29.1 µM.
As for `COc1cc(C(=O)O/N=C(\N)Cc2cccc3ccccc23)cc(OC)c1OC`, the GI50 was 15.7 µM and the TGI was found to be 33.9 µM.
`O=C1C(Br)=C(Br)C(=O)c2ccccc21`: the TGI was 94.6 µM and 31.4 µM.
`CCN(CC)C1Oc2cc3c(cc2C(c2cccc(OC)c2O)C1C)OCO3` (stereo not drawn) registered a TGI of 36.5 µM.
The compound `CC(C)=CCC[C@@H](C)C1=CC(=O)C(C)=C(O)C1=O` returned a TGI of 25.7 µM.
Still for that read-out and setting: then `CCOc1cc2c(=O)oc3c(OC)ccc4ccc(c1OC)c2c43`, with > 100 µM.
In the case of `Cc1ccc2nc3c(n2c1)C(=O)C(=O)c1ccccc1-3`, the GI50 was 0.693 µM and the TGI stood at 1.72 µM.
With `Oc1ccc2ccccc2c1N=Nc1ccc(Cl)cc1`, the TGI is > 100 µM.
Consider `C[N+](C)(C)CC(=O)N/N=C(/Cc1nc2ccc([N+](=O)[O-])cc2[nH]c1=O)C(=O)Nc1cc(C(F)(F)F)ccc1Cl`, for which the TGI is > 100 µM.
Consider `O=C(NN1C(=O)C(Cl)C1c1ccccc1Cl)c1ccccc1O` (stereo not drawn), for which the TGI is > 100 µM.
On the same count and under the same terms, to `O=C1c2cccnc2-c2nccc3c2c1nc1ccc(Br)cc13` belongs 0.137 µM.
Turning to `O=C(Cn1c(C(=O)c2ccc(Cl)cc2)nc(-c2ccccc2)c1-c1ccccc1)c1ccc(Cl)cc1`, the GI50 is > 100 µM and the TGI is > 100 µM.
Turning to `COc1ccc(CCCN2c3ccccc3Sc3ccccc32)cc1`, the TGI was > 100 µM.
Regarding `O=C(c1ccco1)c1nc2cc(C(F)(F)F)ccc2[n+]([O-])c1C(F)(F)F`, the GI50 is 43.7 µM and the TGI was > 100 µM.
Consider `Cc1ccc(-c2cc(-c3ccc(C)cc3)nc(N3CCN(CCNc4ccnc5cc(Cl)ccc45)CC3)n2)cc1`, for which the GI50 was 3.36 µM and the TGI came to 15 µM.
As to `CC1=CC(=O)/C(=C/n2c(=S)[nH]c3cc(C)ccc32)C(=O)O1`, the TGI was > 100 µM.
Turning to `COc1cc(C2c3cc(OC)c(OC)c(O)c3C(=O)C3CCC(=O)N32)cc(OC)c1OC` (stereo not drawn), the TGI is > 100 µM.
Still for that read-out and setting: to `O=C1CCCCN1C(=O)c1ccc([N+](=O)[O-])cc1` belongs > 100 µM; to `CN(C)CCNC(=O)c1c2ccccc2cc2ccccc12`, > 100 µM.
With `COc1ccc2c(c1)[nH]c(=O)c1c3cc(OC)c(OC)cc3cn21`, the GI50 was 0.0538 µM and the TGI was found to be 17.2 µM.
In the case of `CCOC(=O)C(NC(=O)CC)(Nc1ccc(S(=O)(=O)Nc2ccc(OC)nn2)cc1)C(F)(F)F` (stereo not drawn), the TGI was > 100 µM.
Turning to `O=C(CC(c1ccccc1)C(C(=O)c1ccncc1)C(CC(=O)c1ccncc1)c1ccccc1)c1ccncc1` (stereo not drawn), the TGI is > 100 µM.
Same read-out and setting: to `Cc1cc2oc3c(ccc(=O)n3C)c(=O)c2c(C)c1Cl` belongs > 100 µM; to `CC(C)C1=C(Cc2ccccc2)C(=O)O/C1=C\c1ccc(O)c(Cl)c1`, 30.9 µM.
With `CNC(=O)c1cc(Oc2ccc3nc(N[C@@H]4CCCC[C@H]4O)sc3c2)ccn1`, the GI50 is > 100 µM and the TGI is > 100 µM.
On to `NCCS(=O)(=O)O`, for which the TGI was > 100 µM.
As to `C=C(C)[C@@H]1CC[C@]2(C(=O)O)CC[C@]3(C)[C@H](CC[C@@H]4[C@@]5(C)C/C(=C/c6cccc(I)c6)C(=O)C(C)(C)[C@@H]5CC[C@]43C)[C@@H]12`, the GI50 was 2.44 µM and the TGI came to 9.1 µM.
As for `O=C1c2cccc3c(Cl)ccc(c23)C(=O)N1CCCN1CCN(CCCN2C(=O)c3cccc4c(Cl)ccc(c34)C2=O)CC1`, the TGI is > 100 µM.
In the case of `CCn1c(=O)c2c3ccc(OC)cc3[nH]c2c2ccc(OC)cc21`, the TGI is > 100 µM.
Turning to `CCSc1ccc([C@@H]2[C@@H](N)C(=O)N2c2cc(OC)c(OC)c(OC)c2)cc1`, the GI50 is 0.665 µM and the TGI is > 100 µM.
In the case of `CC(=O)OCCOCNC(=S)N/N=C(\C)c1cccs1`, the TGI was > 100 µM.
As for `CCOc1ccc(NCC2CC/C(=C\c3ccc(Cl)cc3)C2=O)cc1` (stereo not drawn), the TGI is > 100 µM.
In the case of `Nc1nc(-c2ccc(Cl)cc2)cc(-c2ccc(Cl)cc2)c1-c1nc2ccccc2o1`, the GI50 was 15.6 µM and the TGI came out at 31 µM.
For `O=C1c2cc3c(cc2CC1Cc1ccc2c(c1)CCC2)CCC3` (stereo not drawn), the TGI is > 100 µM.
Consider `c1ccc2c(c1)Sc1ccccc1N2C1CN2CCC1CC2` (stereo not drawn), for which the TGI was found to be 32.5 µM.
In the case of `COc1ccc(C2C(C#N)=C(S)N(C3OC(CO)C(O)C(O)C3O)C(C)=C2C(C)=O)cc1` (stereo not drawn), the TGI is > 100 µM.
Consider `O=C(Oc1ccc2c(-c3ccccc3)c(C(=O)Nc3ccc(Cl)cc3)c(=O)oc2c1)c1ccccc1`, for which the TGI is > 100 µM.
For the compound `N#CCc1nc2cc(C(F)(F)F)ccc2s1`, the TGI was > 100 µM.
For the compound `CC1C(C#N)(C#N)C(C#N)=C(N)C1(C)[N+](=O)[O-]` (stereo not drawn), the TGI was > 100 µM.
Still for that read-out and setting: to `O=c1[nH]nc(Cc2ccc(Cl)cc2)n1/N=C/c1c[nH]c2ccccc12` belongs > 100 µM; to `C=C1CCC2C(C)(CO)C(O)CCC2(C)C1C/C=C1/CCOC1=O` (stereo not drawn), > 100 µM.
The compound `COC1=CC(=O)c2nc3ccccc3c3ccnc1c23` displayed a TGI of 16.1 µM.
The same measure, in the same setting: then `C[C@@]12C[C@@H](c3ccccc3O1)N1Cc3ccccc3CSC1=N2`, with > 100 µM.
On to `O=C(Nc1ccc(Oc2ccc(NC(=O)Nc3ccc([N+](=O)[O-])cc3)cc2)cc1)Nc1ccc([N+](=O)[O-])cc1`, for which the GI50 was 2.44 µM and the TGI is > 100 µM.
`O=C(/C=C/c1ccccc1O)c1cccc2ccccc12`: the TGI is > 100 µM.
For `CCOC(=O)C(=O)Nc1ccccc1OCC`, the TGI was > 100 µM.
For `COc1cc(C(O)C(=O)c2cnc3cc([N+](=O)[O-])ccc3n2)ccc1O` (stereo not drawn), the TGI was > 100 µM.
As to `O=Cc1c(Br)[nH]c2ccccc12`, the TGI is > 100 µM.
For the compound `CC(O)C(NC(=O)c1ccccc1)C(=O)N(Cc1ccccc1)Cc1ccccc1` (stereo not drawn), the TGI was > 100 µM.
Same read-out and setting: then `COc1ccc(-c2nc(-c3cnccn3)n(Cc3ccccc3)n2)cc1`, with > 100 µM; and `OC1(c2ccc(Cl)cc2)c2c(c3ccccc3c3ccccc23)C2=NCCN21` (stereo not drawn), with 61.3 µM; and `O=C1O[C@H]2C3C4CCC(C4[C@@H]2I)[C@H]13` (stereo partly drawn), with > 100 µM.
Still for that read-out and setting: to `CN1C=COC1N=C1CCCCC1` (stereo not drawn) belongs > 100 µM.
Take `Fc1cccc(Cl)c1Cn1c(-c2c(F)cccc2Cl)nc2ccccc21`: the GI50 is 14 µM and the TGI turned out to be 36 µM.
Regarding `CCCCCCCCCCCC1=NC(C)(C)CN1CC(C)O` (stereo not drawn), the GI50 was 9.98 µM and the TGI was determined as 21.5 µM.
For the compound `Cc1cccc(C(C)C)c1NC(=O)CCl`, the TGI is > 100 µM.
As to `CCOC(OCC)C(CC)[Se]c1ccccc1` (stereo not drawn), the TGI was > 100 µM.
With `CCN(CC)c1ccc2cc(C(N)=O)c(=Nc3ccc(F)cc3)oc2c1`, the TGI was > 100 µM.
On the same count and under the same terms, then `N#Cc1ccc(C2Oc3ccc(Cl)cc3C=C2[N+](=O)[O-])cc1` (stereo not drawn), with 3.37 µM; and `O=S(c1ccc(Cl)cc1)c1ccccc1C1=NCCN1` (stereo not drawn), with > 100 µM; and `COc1ccc(N2N=NN(C(C)C)/C2=C(/Cl)c2nnnn2-c2ccc(OC)cc2)cc1`, with 30 µM.
Consider `N#Cc1ccc2[nH]c3c(c2c1)CC(=O)Nc1ccccc1-3`, for which the TGI is > 100 µM.
In the case of `O=P(O)(O)CN1CCNCCN(CP(=O)(O)O)CCN(CP(=O)(O)O)CCNCC1`, the result was inactive.
Take `O=C(Oc1ccccc1Cl)c1ccccc1Nc1cccc(C(F)(F)F)c1`: the GI50 was 37.8 µM and the TGI was > 100 µM.
`Cn1nc2ccc3nccc(NCCNCCO)c3c2n1`: the TGI was > 100 µM.
Regarding `CN(C(=O)C12C3C4C1C1C2C3C41C(O)C(C)(C)C)C(C)(C)C` (stereo not drawn), the TGI is > 100 µM.
For `COc1cc2c(c(OC)c1OC)-c1ccc(SC)c(=O)cc1[C@@H](NCc1cccc([N+](=O)[O-])c1)CC2`, the TGI is > 100 µM.
For the compound `O=S1c2ccccc2NC(c2ccc3ccccc3c2)CC1c1ccccc1` (stereo not drawn), the TGI was > 100 µM.
As for `CC[C@H]1CN(C)[C@H]2Cc3c([nH]c4ccccc34)C(=O)C[C@H]1C2C(=O)OC` (stereo partly drawn), the TGI was > 100 µM.
Regarding `COc1ccc2c(c1)C(=O)c1c-2c(N2CCN(C(=O)CNCCN(C)C)CC2)nc2ccccc12`, the GI50 was 3.47 µM and the TGI is 14.9 µM.
Turning to `C=CCOCn1ccc(N)nc1=O`, the TGI was > 100 µM.
Consider `COc1cc2c(c(OC)c1OC)-c1ccc(SC)c(=O)cc1[C@@H](NC(=O)c1ccc([N+](=O)[O-])cc1)CC2`, for which the TGI is > 100 µM.
`Fc1ccc([C@@H]2CCNC[C@H]2COc2ccc3c(c2)OCO3)cc1`: the GI50 is 10.3 µM and the TGI came out at 22.6 µM.
Turning to `O=C1CCSC(=S)N1c1ccc(Br)c(Cl)c1`, the TGI came to 83.4 µM.
